The text below walks through data of article PMC12622447.

The chains behind the UniProt entries cited, without tags or fusion partners. Where a name states a change or a piece, a line headed by the entry shows the natural chain unless it says otherwise. A line that says so, or that is headed by a name, gives the form on record, which may keep a tag or linker. Residues count along the entry.
UniProt Q99816: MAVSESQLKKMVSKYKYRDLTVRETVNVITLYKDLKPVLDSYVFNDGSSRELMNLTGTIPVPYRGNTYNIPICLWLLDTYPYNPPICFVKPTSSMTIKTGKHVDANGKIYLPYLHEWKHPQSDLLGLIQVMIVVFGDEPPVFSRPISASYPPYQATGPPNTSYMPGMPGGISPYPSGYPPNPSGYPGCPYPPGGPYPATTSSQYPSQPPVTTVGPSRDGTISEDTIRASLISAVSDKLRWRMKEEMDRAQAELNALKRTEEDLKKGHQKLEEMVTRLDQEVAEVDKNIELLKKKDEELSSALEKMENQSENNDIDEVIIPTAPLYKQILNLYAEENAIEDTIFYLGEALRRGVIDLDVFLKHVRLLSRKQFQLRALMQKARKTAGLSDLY
TSG101-UEV-GFP: residues 2-145 of Q99816
TSG101-UEV M95A mutant (Q99816, form named): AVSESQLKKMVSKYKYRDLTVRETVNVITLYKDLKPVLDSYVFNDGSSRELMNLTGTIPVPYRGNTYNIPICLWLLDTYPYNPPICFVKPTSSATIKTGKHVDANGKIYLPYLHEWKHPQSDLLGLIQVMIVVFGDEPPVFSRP
TSG101-UEV N45A mutant (Q99816, form named): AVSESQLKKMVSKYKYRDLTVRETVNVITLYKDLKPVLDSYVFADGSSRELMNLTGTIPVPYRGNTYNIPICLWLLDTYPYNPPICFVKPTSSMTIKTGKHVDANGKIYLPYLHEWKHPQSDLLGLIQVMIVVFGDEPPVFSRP
UniProt P60842: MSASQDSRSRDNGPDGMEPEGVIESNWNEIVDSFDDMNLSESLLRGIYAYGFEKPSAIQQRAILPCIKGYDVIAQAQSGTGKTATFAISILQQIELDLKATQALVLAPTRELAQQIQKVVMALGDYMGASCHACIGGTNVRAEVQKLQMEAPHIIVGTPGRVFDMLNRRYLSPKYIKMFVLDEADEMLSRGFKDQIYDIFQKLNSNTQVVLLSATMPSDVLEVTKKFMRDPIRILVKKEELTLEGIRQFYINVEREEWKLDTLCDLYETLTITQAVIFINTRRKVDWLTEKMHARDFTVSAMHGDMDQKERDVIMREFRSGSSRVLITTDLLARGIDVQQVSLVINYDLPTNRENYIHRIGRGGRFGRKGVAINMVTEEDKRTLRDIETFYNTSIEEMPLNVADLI
UniProt P06730: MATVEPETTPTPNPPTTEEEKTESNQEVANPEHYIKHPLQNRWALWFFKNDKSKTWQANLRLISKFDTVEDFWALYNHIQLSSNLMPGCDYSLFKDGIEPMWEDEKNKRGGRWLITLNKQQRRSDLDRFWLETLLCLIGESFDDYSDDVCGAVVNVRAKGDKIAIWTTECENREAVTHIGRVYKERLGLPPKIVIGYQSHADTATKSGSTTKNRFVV

The target in assay [1] is TSG101-UEV-GFP (UniProt Q99816). The assay is described as follows: co-IP; GFP-Trap: cleared lysates of OVCAR8 cells stably expressing GFP fusion proteins or TSG101 variants incubated with GFP-nanobody agarose; beads washed with ice-cold Co-IP washing buffer, eluted by boiling, western blotting. On the technique in general: A western blot detects proteins with antibodies after separation by electrophoresis.

The target in assay [2] is TSG101-UEV M95A mutant (UniProt Q99816). The assay is described as above.
Assay [3] has as its target TSG101-GFP fusion protein (UniProt Q99816). Described as above.
For assay [4], the target named is TSG101-UEV N45A mutant (UniProt Q99816). The assay is described as above.
Assay [5] concerns the target TSG101 (ESCRT-I component) (human (endogenous in OVCAR8)) (UniProt Q99816). The assay is described as follows: proximity ligation; DuoLink In Situ Red kit Mouse/Rabbit on fixed OVCAR8 cells; primary antibodies for eIF4E, eIF4A1 and TSG101 overnight at 4 °C; confocal microscopy, red dots counted.
In assay [6] the target is eIF4A1-GFP fusion protein (UniProt P60842). As to the kind of experiment: co-IP; GFP-Trap: cleared lysates of OVCAR8 cells stably expressing GFP fusion proteins or TSG101 variants incubated with GFP-nanobody agarose; beads washed with ice-cold Co-IP washing buffer, eluted by boiling, western blotting.
Assay [7] addresses eIF4E-GFP fusion protein (UniProt P06730). Described as above.

These are yes or no findings as the source states them, for the method shown. Binding seen in cells or lysates may run through a third protein. Some results given as binding are weak or reduced against the parent protein; the word gives no strength.

In the case of eIF4A1 (from UniProt P60842 1-406), the binding result was “binds” in assay [1]; “binds” in assay [2]; “binds” in assay [3]; “no binding” in assay [4]; “binds” in assay [5].
Regarding eIF4E (from UniProt P06730 1-217), the binding result in assay [1] is “binds”; in assay [2] it was “binds”; in assay [3], “binds”; in assay [4], “no binding”; in assay [5] it was “binds”.
Consider “TSG101 (ESCRT-I component) (from UniProt Q99816 1-390)”, for which the binding result in assay [6] and in assay [7] was “binds” each time.
